Measurements taken from article PMC4336329 (PLoS ONE, 2015).
Screen size: about 310,000 compounds; about 14,000 (4.5%) showed an effect of 50% or more. Effects have a minus sign here. The list shows a part of the results.

target: human ether-à-go-go-related gene (hERG) potassium channel (human, UniProt Q12809); assay: primary screen, population patch clamp on CHO cells stably expressing hERG
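Further: peak tail current of the secondary pulse compared with the same well before compound.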

human ether-à-go-go-related gene (hERG) potassium channel, sequence (Q12809 whole entry, looked up): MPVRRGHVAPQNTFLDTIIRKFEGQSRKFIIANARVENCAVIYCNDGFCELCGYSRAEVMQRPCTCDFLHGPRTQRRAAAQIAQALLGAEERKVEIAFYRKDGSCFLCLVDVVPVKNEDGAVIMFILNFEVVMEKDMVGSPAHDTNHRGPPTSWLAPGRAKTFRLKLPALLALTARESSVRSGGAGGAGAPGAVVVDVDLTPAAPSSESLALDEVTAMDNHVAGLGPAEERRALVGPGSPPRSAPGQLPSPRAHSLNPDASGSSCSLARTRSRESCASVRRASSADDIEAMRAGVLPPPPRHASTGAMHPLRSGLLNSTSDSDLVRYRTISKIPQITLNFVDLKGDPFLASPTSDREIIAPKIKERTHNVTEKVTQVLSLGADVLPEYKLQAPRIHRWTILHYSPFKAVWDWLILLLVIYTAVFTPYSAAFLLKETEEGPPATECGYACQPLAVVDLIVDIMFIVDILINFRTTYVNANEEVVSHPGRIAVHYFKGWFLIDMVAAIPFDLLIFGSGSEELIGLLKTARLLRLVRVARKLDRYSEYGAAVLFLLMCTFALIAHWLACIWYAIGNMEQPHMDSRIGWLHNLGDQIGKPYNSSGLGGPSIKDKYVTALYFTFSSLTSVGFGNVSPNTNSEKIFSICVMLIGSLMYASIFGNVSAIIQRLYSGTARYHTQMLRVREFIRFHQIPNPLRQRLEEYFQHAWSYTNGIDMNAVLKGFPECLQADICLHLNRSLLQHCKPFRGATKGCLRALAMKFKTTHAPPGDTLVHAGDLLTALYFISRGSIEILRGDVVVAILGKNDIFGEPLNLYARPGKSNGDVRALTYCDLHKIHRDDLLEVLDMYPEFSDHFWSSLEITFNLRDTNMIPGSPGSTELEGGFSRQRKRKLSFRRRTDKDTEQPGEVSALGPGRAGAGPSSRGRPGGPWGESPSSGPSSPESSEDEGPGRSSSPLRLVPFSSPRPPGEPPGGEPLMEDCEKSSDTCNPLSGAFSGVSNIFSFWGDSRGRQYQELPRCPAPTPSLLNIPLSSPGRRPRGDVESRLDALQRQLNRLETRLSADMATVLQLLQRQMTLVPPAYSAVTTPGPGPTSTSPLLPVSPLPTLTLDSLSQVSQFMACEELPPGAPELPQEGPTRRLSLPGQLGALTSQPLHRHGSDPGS

SMILES | hERG current change (%, negative = inhibition) at 10uM [%]
CN(C)/C=C(\C#N)C(=O)c1cccnc1Oc1cccc(F)c1 | -2.68
O=C(Cn1cnc2ccccc2c1=O)NCCC(=O)N1CCN(Cc2ccccc2)CC1 | 11.2
CN(C)C1(CNC(=O)C2CCN(S(=O)(=O)c3ccccc3C(F)(F)F)CC2)CCCCC1 | -29.8
CCSc1ccccc1C(=O)Nc1ccc2c(c1)OCO2 | 59
O=C(c1cc2ccccc2cc1O)N1CCCC1 | 22.4
Cc1ccc(SCCNC(=O)CN(c2ccc3c(c2)OCO3)S(C)(=O)=O)cc1 | -20.4
CC1CCN(C(=O)CSc2nc3[nH]ncc3c(=O)[nH]2)CC1 | 11.3
Cc1ccc(/C=N/NC(=O)C2CCN(Cc3ccc(F)cc3Cl)CC2)o1 | -34.9
O=C(c1ccc(NS(=O)(=O)c2cccc(C(F)(F)F)c2)cc1)N1CCCC1 | -41.8
Cc1cc(=O)[nH]c(-c2ccc(C(F)(F)F)cc2)n1 | 3.13
Cc1c(NC(C)C)c(=O)n(-c2ccccc2)n1C.Cl | -1.21
Cc1cccc(C(=O)NNC(=O)C23CC4CC(CC(C4)C2)C3)c1O | 20.6
COc1ccc(/C=C(\NC(=O)c2ccc([N+](=O)[O-])cc2)C(=O)NCCN2CCOCC2)cc1 | -70.7
CCN1c2ccccc2-c2nc3ccccc3n2C1c1cccnc1 (stereo not shown) | -24.8
COc1ccc(C2=NOC(C(=O)Nc3c(C)n(C)n(-c4ccccc4)c3=O)C2)cc1OC (stereo not shown) | 14.2
COc1cc(OC)c(C(=O)OCC(=O)N(Cc2ccccc2)C(C)(C)C)cc1OC | 2.44
CCN(CC)c1nc2c(c(=O)[nH]c(=O)n2C)n1CCOc1ccccc1 | 10.3
COCC(C)N=C1NN=C(c2c[nH]c3ccccc23)CS1 (stereo not shown) | 4
Cc1ccc(C(=O)O/N=C/c2c(Cl)n(C)c3ccccc23)cc1 | 16.2
Cc1ccc(NC(=O)C(Cc2ccccc2)NC(=O)OCc2ccccc2)cc1C (stereo not shown) | -5.74
CCN1CCN(Cc2ccc(NC(=O)Nc3ccccc3Cl)cc2)CC1 | -22.8
O=C(NCC(=O)N(c1ccccc1)C(C(=O)NC1CCCCC1)c1ccncc1)c1ccco1 (stereo not shown) | 5.92

SMILES | hERG current change (%, negative = inhibition) at 10uM [%]
CCC(Sc1nc2cc(OC)c(OC)cc2c(=O)n1CCc1ccc(OC)c(OC)c1)C(=O)NCCOC (stereo not shown) | 17.6
Cc1cc(C)c(C(=O)OCCNC(=O)c2cccnc2)cc1C | -17.3
CC1(c2nnc(-c3ccc(Cl)cc3)o2)CC(c2cccc(Cl)c2)=NO1 (stereo not shown) | 13.7
COc1ccccc1NC(=O)CSc1sc2c(O)cc(=O)[nH]c2c1C#N | -4.86
O=c1c2ccccc2nc(-c2ccco2)n1-c1ccc(Br)cc1 | 4.85
O=C1/C(=C\c2cc([N+](=O)[O-])ccc2O)SC(=S)N1Cc1ccc(Cl)cc1 | 28.8
Cc1cc(C)c2cc(C)c3nnc(SCC(=O)NCc4ccc5c(c4)OCO5)n3c2c1 | -22.5
Cc1nc2c3ccccc3nc(NNC(=O)CCC(=O)NC3CCCC3)n2n1 | -39.8
CC1=[N+](C)N(c2ccccc2)C(=O)C1N=Cc1c(Cl)cccc1Cl (stereo not shown) | -38.4
C=CCNC(=O)c1onc(CSc2ccc(F)c(F)c2)c1C(=O)O | 22.4
COc1ccc(NC(=O)N2CCc3cc(OC)c(OC)cc3C2)cc1 | 8.36
CCCCN1CC[C@H]2C=CC[C@@H](C(=O)N3CCOCC3)[C@H]2C1=O | 22.7
CCCCCCN1C2=NCCCN2c2ccccc21.Cl | -78.3
Cc1cccc(S(=O)(=O)c2c(C)cc(C)[nH]c2=O)c1 | 15.3
CS(=O)(=O)N(CC(=O)NC1CCCCCC1)Cc1ccccc1 | -1.26
CCCCOc1ccccc1/C=N/NC(=O)CC#N | 13.1
Cc1cccc(NC(=O)COC(=O)c2ccccc2SCC(=O)N2CCCC2)c1 | -7.14
COc1ccc(CC(CC(=O)O)C(=O)Nc2ccccc2)cc1 (stereo not shown) | 8.09
CC(OC(=O)c1ccc(-n2cnnn2)cc1)C(=O)Nc1ccccc1F (stereo not shown) | -23.2
C=CCn1c(SCC(=O)CC(=O)OCC)nc2cc(C(=O)N3CCC(C(N)=O)CC3)ccc2c1=O | 13.7
CN(C)N1C(N)=C(C#N)C(c2ccccc2F)C2=C1CC(C)(C)CC2=O (stereo not shown) | 5.46
Cc1cnc2cc(Cl)ccc2c1SCC(=O)O | 12.3

SMILES | hERG current change (%, negative = inhibition) at 10uM [%]
CC(=O)c1cc(C#N)c(SCc2ccncc2)nc1C | -8.93
Cc1c(C(=O)N2CCN(c3ccccc3F)CC2)oc2c1C(=O)CC(C)(C)C2 | -3.95
C=CCn1c(SCC(=O)Nc2ccc(OC)cc2)nc2ccccc2c1=O | 8.2
Cn1c(=O)c2c(nc(CN3CCC(C(N)=O)CC3)n2Cc2c(F)cccc2Cl)n(C)c1=O | -3.93
COc1ccc(NC(=O)Cn2cnc3c(cnn3C(C)(C)C)c2=O)cc1OC | -5.43
COC(=O)C1=C(c2cccc(OC)c2OC)C[C@@H]2CC[C@H]1N2C(=O)NC1CCCCC1 | 3.59
CCOc1cc(C2c3c(n[nH]c3C)C(=O)N2c2ccc(C)cc2)ccc1O (stereo not shown) | -2.92
C=CCNC(=S)/N=c1/ccccn1C | -5.42
CC1(C(=O)N2CCC(CC3CC(c4cccc(Br)c4)=NO3)(C(=O)NCC3CCCCC3)CC2)CC1 (stereo not shown) | -20.1
CN(C)c1ccc(NC(=O)C(=O)C2C(=O)Nc3ccccc32)cc1 (stereo not shown) | -2.13
O=C1CN(C(=O)CN2CCOCC2)C(c2ccccc2)c2cc(Br)ccc2N1 (stereo not shown) | -32.3
CCNC(=O)Oc1ccc[nH]c1=O | 17.5
O=C(CSc1ncnc2scc(-c3ccccc3)c12)Nc1ccc(C(=O)O)cc1 | 8.17
CCOC(=O)c1c(C)[nH]c(C(=O)OCC(=O)c2c(N)n(C)c(=O)n(C)c2=O)c1C | 15.3
c1coc(-c2nnc3sc(-c4cccs4)nn23)c1 | -22.5
Cc1ccnc(N/C=C(/NC(=O)c2ccccc2)C(=O)N/N=C\c2ccc(F)cc2)n1 | -41.9
CC(C)c1ccc(N2C(=O)NC(=O)/C(=C\c3cnc(-c4ccccc4)nc3)C2=O)cc1 | 19.2
Cc1[nH]c(=O)[nH]c(=O)c1CSc1nnc(CCCCCNC(=O)OC(C)(C)C)o1 | 5.71
CC1=C(C)C(=O)N(CCC(=O)O)C1=O | 10.6
CCN(CC(=O)Nc1ccc(Br)cc1)C(=O)Cc1cccc(F)c1 | -17.4
C=C1CCN([C@@H](Cc2ccccc2)C(=O)NCCCc2ccccc2)S(=O)(=O)c2ccccc21 | 3.69
CCCCCn1c(SCCC(C)C)nc2c1c(=O)[nH]c(=O)n2C | -11.9

SMILES | hERG current change (%, negative = inhibition) at 10uM [%]
O=c1c2[nH]c3ccc(F)cc3c2nc2n1CCS2 | -0.967
Cc1occc1C(=O)NNC(=O)c1ccccc1F | 13
CC(=O)OCCNc1nc(-c2ccccc2)nc2ccccc12 | -33.7
CC(C)C(c1nnnn1Cc1cccs1)N1CCN(C(=O)c2ccco2)CC1 (stereo not shown) | -31.6
O=C(N/N=C/c1cccc([N+](=O)[O-])c1)c1c[nH]c2ccccc12 | 4.28
CCOc1ccc(C(=O)c2ccc([N+](=O)[O-])cc2Cl)cc1 | 20.3
Cc1ccc(NC(=O)CSc2nnc3ccccn23)cc1S(=O)(=O)N1CCOCC1 | -19.6
O=C(CCc1ccccc1)Nc1cccnc1 | 0.0645
CNC(=O)c1[nH]cnc1C(=O)Nc1ccccc1C | 16.8
Cc1cccc(N2CCc3c2nc2ccccc2c3N)c1.Cl | -61.9
CCNC(=O)c1oc2c(c1C)C(=O)CC(C)(C)C2 | 10.7
COc1cc(NC(=O)N[C@@H](Cc2ccccc2)C(=O)O)cc(OC)c1 | -3.09
CCCc1cc(=O)oc2c(CN(CC)CC)c(O)c(Cl)cc12 | -39.8
Cc1ccc(/C(O)=C2/C(=O)C(=O)N(Cc3cccnc3)C2c2ccccn2)cc1 (stereo not shown) | 22.2
COc1cccc(N2CCN(C(=O)c3cn(Cc4ccccc4)nc3-c3cccnc3)CC2)c1 | -12.9
COc1cccc(CSc2ccc(S(=O)(=O)N3CCOCC3)cc2C(=O)NCC2CCCO2)c1OC (stereo not shown) | -2.22
O=C1Nc2ccccc2C1Cc1nc2ccccc2c(=O)n1-c1ccccc1 (stereo not shown) | -4.02
CCC(C)(C)NC(=O)C(c1ccc(OC)cc1)N(C(=O)CCC(=O)Nc1cc(C)on1)C(C)(C)C (stereo not shown) | -27.1
CC1CN(CC(=O)Nc2ccccc2Sc2ccccc2)CC(C)O1 (stereo not shown) | -17.4
CC(NC(=O)CSc1ncccn1)c1ccccc1 (stereo not shown) | 3.07
CCOc1ccc(NC2OCC(O)C(O)C2O)c([N+](=O)[O-])c1 (stereo not shown) | 33.2
CCCCN(C(=O)CSCC(=O)Nc1ccc(C)cc1)c1c(N)n(CCCC)c(=O)[nH]c1=O | 6.71
